# Laboratory results published in PubChem BioAssay AID651820 (National Center for Advancing Translational Sciences (NCATS), 2012).
# About 12,000 (3.5%) of roughly 340,000 compounds were called active. Inconclusive results, whose numbers are uncertain, are shown with a selection of clear calls. The call rests on the fitted dose curve; in most records, active means well fitted inhibition curve with a large enough effect; inconclusive means small, poorly fitted or top-dose-only effect, or another doubt; inactive means no such curve, though single readings can be large or run the other way. Potencies of inconclusive entries are left out as doubtful fits.
# Assay: qHTS Assay for Inhibitors of Hepatitis C Virus (HCV)
# Settings: Huh7.5.1 HCVcc-Cre (HCVcc is cell-culture hepatitis C virus) infection, luciferase reporter, 44 h; activity change, negative = inhibition: at 41.8 µM (top of the series)
# Outline: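 Cells seeded at 1,000/well and cultured 4 h, then compounds added followed by HCVcc-Cre virus (~0.5 moi). After 44 h further culture, luciferase substrate was added, plates held 15 min at room temperature, and luminescence read for 15 sec.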
# On the % scale 0 is the no-effect control and ±100 the full control effect; potency means the concentration at half of the fitted maximal effect; tags describe the fitted curve by direction and shape.
Compound,Potency,"activity change, negative = inhibition"
Cc1ccc(C)c(CSc2nc3[nH]ncc3c(=O)[nH]2)c1,"inconclusive [inhibitor, partial curve]",–
O=C(CC1C[C@H](C(=O)N2CCCCC2)[C@@]2(CCc3ccccc3)c3[nH]c4ccccc4c3CCN2C1=O)NCCCn1ccnc1 (some centres undefined),"inconclusive [inhibitor, partial curve]",–
O=C1C=C(c2ccccc2)C[C@H](c2cccs2)[C@H]1n1nnc([N+](=O)[O-])n1,"inconclusive [inhibitor, single point]",–
COc1ccc(Cc2nc3ccc(C(=O)NC(C)c4cn(C)nc4C)cc3o2)cc1 (centres undefined),"inconclusive [inhibitor, single point]",–
CC(=O)N1CCN(C2=NC(=O)/C(=C/c3ccc(OS(=O)(=O)c4ccccc4)cc3)S2)CC1,–,inactive: -4.66%
CCOC(=O)c1ccc(C(=O)OCC)c(NC(=S)Nc2ccc([N+](=O)[O-])cc2OC)c1,"inconclusive [inhibitor, full curve, poor fit]",–
Cc1ccc(OCCn2c(=O)n(C)c3ccccc32)cc1,active: 11.2 µM,–
COC(=O)c1ccc(OC)c(CN2CCCN(Cc3ccc(F)cc3)S2(=O)=O)c1,"inconclusive [inhibitor, partial curve, poor fit]",–
COc1ccc(CN(Cc2ccc(OC)cc2)S(=O)(=O)c2ccc(-n3cnnn3)c(C)c2)cc1,"inconclusive [inhibitor, partial curve]",–
COC(=O)c1cc(NC(=O)c2ccc(-c3ccccc3)cc2)ccc1Cl,active: 10 µM,–
Cc1nc(NC(=O)CCl)sc1C(=O)N(C)C,"inconclusive [inhibitor, partial curve]",–
COc1ccc(C(=O)CSc2[nH]c(=O)cc(C(F)(F)F)c2C#N)cc1,–,inactive: -9.72%
CCOC(=O)N1CCN(c2nc(-c3ccc(OC)cc3)no2)CC1,active: 12.6 µM,–
CCN(CC)CCN(Cc1cc2cc3c(cc2[nH]c1=O)OCCO3)C(=S)NCC(C)C,"inconclusive [inhibitor, single point]",–
CCn1c(NCc2ccccc2Cl)nc2ccccc21,"inconclusive [inhibitor, single point]",–
Cc1ccc(S(=O)(=O)N2CCC(C(=O)Nc3ccccc3N3CCCCC3)CC2)cc1C,"inconclusive [inhibitor, single point]",–
COc1ccc(C2CC(c3ccccc3)=NN2C(=O)c2cccs2)cc1 (centres undefined),"inconclusive [inhibitor, single point]",–
CCc1c(O)nc(SCc2ccc(F)cc2)[nH]c1=O,–,inactive: 15.6%
COc1ccc(NC(=O)c2ccco2)cc1NC(=O)c1ccc(C)cc1,"inconclusive [inhibitor, single point]",–
CC(C)C[C@@H](C(=O)NC1CCN(Cc2ccccc2)CC1)N1C(=O)N2CCc3c([nH]c4ccccc34)[C@@]2(C)C1=O,"inconclusive [inhibitor, partial curve, poor fit]",–
CC(NC(=O)C12CC3CC(CC(C3)C1)C2)C(=O)N/N=C/C1=C(N2CCOCC2)C(=C\c2cccc([N+](=O)[O-])c2)/CC1 (centres undefined),"inconclusive [inhibitor, partial curve]",–
CCOC(=O)c1c(C)[nH]c(C)c1C(=O)COC(=O)c1cccc(S(=O)(=O)N(CC)CC)c1,"inconclusive [inhibitor, single point]",–
COc1ccc(C)cc1NC(=O)C1COc2ccccc2O1 (centres undefined),"inconclusive [inhibitor, single point]",–

Compound,Potency,"activity change, negative = inhibition"
CCOC(=O)c1cc(C#N)c(N2CCNCC2)nc1C(F)(F)F,"inconclusive [inhibitor, full curve]",–
CCN1C(=O)[C@H]2[C@@H](c3ccc(-c4ccc(Cl)c(Cl)c4)c(OC)c3)N3CCCC[C@@]3(C(=O)OC)[C@H]2C1=O,"inconclusive [inhibitor, single point]",–
COc1ccc(CCNC(=O)c2cc3c(=O)n4ccccc4nc3n(CC3CCCO3)c2=N)cc1OC (centres undefined),active: 8.91 µM,–
CCOc1ccccc1CN1CCCC(C(=O)c2ccc(OC)c(OC)c2)C1 (centres undefined),–,inactive: 9.97%
CC1CCN(C(=O)CSc2nnc(CNC(=O)COc3ccc(Cl)cc3)o2)CC1,–,inactive: -6.64%
O=C(COc1ccc(Cl)cc1Br)NC(=O)NCc1ccccc1,–,inactive: -0.499%
O=C(CN1C(=O)S/C(=C\c2ccccc2Cl)C1=O)NC1C=CS(=O)(=O)C1 (centres undefined),"inconclusive [inhibitor, partial curve]",–
CCOC(=O)c1ccc(N2C(=O)c3n[nH]c(C)c3C2c2ccccc2)cc1 (centres undefined),–,inactive: 6.35%
CCOC(=O)C1(Cc2ccccc2)CCN(Cc2cccc(OC)c2O)CC1,"inconclusive [inhibitor, single point]",–
Cc1cc([N+](=O)[O-])ccc1-c1ccc(C2Nc3ccccc3C(=O)N2O)o1 (centres undefined),active: 11.2 µM,–
COC(=O)c1c(C(=O)OC)c(-c2ccccc2)n2c1CCC2,"inconclusive [inhibitor, partial curve]",–
COc1ccc(CCNC(=O)c2cc(-c3cc(C)cc(C)c3O)n[nH]2)cc1OC,"inconclusive [inhibitor, single point]",–
C/C(=N\NC(=O)CCC(=O)N/N=C(\C)c1ccc(C)o1)c1ccc(C)o1,"inconclusive [inhibitor, partial curve]",–
CCN(CC(=O)NCc1cccs1)C(=O)/C=C/c1cc(OC)c(OC)c(OC)c1,–,inactive: -5.34%
CCOC(=O)Cn1cc(C(=O)c2cccs2)c2ccccc21,active: 8.91 µM,–
COC(=O)c1cc(NC(=O)CC2Oc3ccccc3NC2=O)cc(C(=O)OC)c1 (centres undefined),"inconclusive [inhibitor, single point]",–
CN1CCN(c2oc(-c3ccccc3Cl)nc2S(=O)(=O)c2ccccc2)CC1,–,inactive: 9.68%
CSc1ccc(C#N)cc1NC(=O)c1ccccc1,"inconclusive [inhibitor, single point]",–
Clc1ccc(-c2csc(-c3ccno3)n2)cc1,–,inactive: 0.749%
COc1ccc(OC)c(C2=NS(=O)(=O)N(C)C(C(=O)Nc3ccc(C(C)=O)cc3)=C2)c1,"inconclusive [inhibitor, partial curve]",–
O=C(COc1ccccc1Cl)N1CCN(c2ccc([N+](=O)[O-])c(N3CCCCC3)c2)CC1,"inconclusive [inhibitor, partial curve]",–
Cc1oc(-c2ccc(Cl)cc2)cc1C(=O)O,–,inactive: -2.93%
COCCNC(=O)CCCn1c(=O)c2cc(OC)c(OC)cc2n(CC(=O)Nc2ccc(C)c(F)c2)c1=O,"inconclusive [inhibitor, partial curve]",–

Compound,Potency,"activity change, negative = inhibition"
COc1ccc(C(=O)/C=C/c2ccc(OCc3ccccc3)cc2)cc1CSCC(=O)O,–,inactive: -9.07%
COc1cccc(N2[C@@H](CC(C)=O)c3cc(C(F)(F)F)ccc3S2(=O)=O)c1,"inconclusive [inhibitor, single point]",–
Cc1cccc(C(=O)NCC(=O)N2CC=C(c3ccccc3)CC2)c1,active: 5.62 µM,–
O=C(Nc1ccc(N2CCCC2)cc1)c1cccc(Cl)c1,"inconclusive [inhibitor, single point]",–
O=C(O)C1CC(O)CN1C(=O)c1ccco1 (centres undefined),"inconclusive [inhibitor, single point]",–
O=C(c1cccc(-n2cccc2)c1)N1CCN(S(=O)(=O)c2ccccc2Br)CC1,–,inconclusive: -35.3% [inhibitor]
Cc1cc(/C=C(\C#N)C(=O)NCc2ccco2)c(C)n1-c1cccnc1,"inconclusive [inhibitor, full curve]",–
C=CCn1c2ccccc2c2nnc(SC(CC)C(=O)Nc3sc4c(c3C#N)CCCC4)nc21 (centres undefined),"inconclusive [inhibitor, single point]",–
COc1cccc(C2CC(C(F)(F)F)n3nc(C(=O)NCc4cccnc4)cc3N2)c1 (centres undefined),–,inactive: -11%
CCOC(=O)Nc1sc(C(=O)N(C)C)c(C)c1C(=O)OCC,"inconclusive [inhibitor, partial curve, poor fit]",–
CCc1ccc(N(C(=O)c2snc(C(N)=O)c2N)C(C(=O)NCC2CCCO2)c2ccco2)cc1 (centres undefined),–,inactive: -10.2%
O=C(Cc1ccccc1)N/N=C/C=C/c1ccccc1[N+](=O)[O-],–,inactive: -11.1%
Cc1ccc(-c2cnc3c(Cl)c(C)nn3c2)cc1,"inconclusive [inhibitor, partial curve]",–
Cc1cc(C)c(NC(=O)c2cc(C(=O)O)ccc2C(=O)O)c([N+](=O)[O-])c1,–,inactive: 1.64%
O=C(CN(Cc1ccccc1)C(=O)c1cc2c(s1)CCC2)NCc1cccs1,"inconclusive [inhibitor, partial curve]",–
CNS(=O)(=O)c1cccc(C(=O)OCCCC(=O)c2ccccc2)c1,"inconclusive [inhibitor, single point]",–
O=C(NNc1ccc([N+](=O)[O-])cc1)c1ccccc1Cl,–,inactive: 6.71%
COc1ccc(CCNC(=O)c2c(Cl)ccc(Cl)c2OC)cc1OC,"inconclusive [inhibitor, partial curve]",–
CCc1ccc2c(c1)C(NC(C)=O)C(=O)N2CCN1CCOCC1 (centres undefined),–,inactive: 11.1%
CN(Cc1cn[nH]c1-c1cc2ccccc2o1)CC1CCOCC1,–,inactive: 14.1%
Cc1ccc(C(=O)N(C)CC(=O)Nc2ccc(Cl)c(C(F)(F)F)c2)cc1S(=O)(=O)N1CCCCC1,active: 7.94 µM,–
CC(C)c1cc(C(=O)O)n[nH]1,–,inactive: 13.7%
O=S(=O)(c1cccc(-c2nnc(SC(F)F)n2-c2ccccc2)c1)N1CCCCC1,"inconclusive [inhibitor, single point]",–
